Here are results for one molecule from PubChem BioAssay (Tox21).

Records with an inconclusive call do not appear. Calls come from the whole dose curve; as a rule, active = well fitted inhibition curve with a large enough effect in the repeat runs; inconclusive = weak or mixed curves; inactive = no such curve, though single readings can be large or run the other way. Some structures have more than one record in an assay (separate samples or runs), and their calls can disagree. For part of its entries the source gives two or more results. The other results are left out here. There may be further records. The records of an entry are repeated measurements in other runs, samples, wells, individuals or studies. Records carry a tag for their origin. A, B and so on number the origins entry by entry.

This assay in a line: qHTS assay to identify small molecule antagonists of the thyroid receptor (TR) signaling pathway (AID 743065). Note: nearly all actives have a fitted effect of over 55% in size. From the text: U.S. Tox21 Program National Center for Advancing Translational Sciences [NCATS] NIH Chemical Genomics Center [NCGC] U.S. Environmental Protection Agency [EPA] National Institutes of Environmental Health Sciences [NIEHS] National Toxicology Program [NTP] U.S. Food and Drug Administration [FDA] Tox21 Assay Overview: Thyroid receptor (TR), a nuclear hormone receptor, plays an important role in development, proliferation, differentiation, metabolism, brain function, and cardiovascular system. […] To profile the Tox21 10K compound library in TR signaling, a cell-based GH3-TRE-Luc assay (GH3.TRE-Luc cell line, developed by the laboratory of Dr. Albertinka J. Murk, Wageningen University) was used to measure the inhibition of TR. GH3 (rat pituitary tumor) cells stably expressing a TR activity sensor consisting of two TR response elements and a luciferase reporter gene.
Tox21 Assay Protocol Summary: GH3.TRE-Luc cells were dispensed at 1500 cells/4 uL/well into 1536-well white solid bottom plates using a Multidrop Combi dispenser (Thermo Fisher Scientific Inc., Waltham, MA). […] The plates were incubated at 37 C and 5% CO2 for additional 30 min, and fluorescence intensity was measured by a ViewLux plate reader (PerkinElmer, Shelton, CT). […] The luminescence intensity of plates was recorded by a ViewLux plate reader (PerkinElmer, Shelton, CT).
A general note: In qHTS, concentration-response curves come from the screen itself.
Potency is the fitted concentration of half-maximal effect.

Turning to `CC(C)OC(=O)OCOP(=O)(CO[C@H](C)Cn1cnc2c(N)ncnc21)OCOC(=O)OC(C)C`, the Potency entry was “inactive [sample A] and active: 23.7 µM [sample B]”.
